Data reported in the supplement of paper PMC3334620.
The full ranking holds about 33,000 sequences; the median of “E-score (-0.5 to 0.5)” is about -0.054, and the highest 2% start at about 0.35. Some of the results follow.

target: T1, Stb5 (UniProt P38699); assay: PBM E-score (8-mer binding enrichment) (E-score (-0.5 to 0.5)); higher = stronger / more preferred TF binding; most listed sequences are background and not binding sites; details: protein concentration: 200 nM; construct: GST-full length
T1 sequence: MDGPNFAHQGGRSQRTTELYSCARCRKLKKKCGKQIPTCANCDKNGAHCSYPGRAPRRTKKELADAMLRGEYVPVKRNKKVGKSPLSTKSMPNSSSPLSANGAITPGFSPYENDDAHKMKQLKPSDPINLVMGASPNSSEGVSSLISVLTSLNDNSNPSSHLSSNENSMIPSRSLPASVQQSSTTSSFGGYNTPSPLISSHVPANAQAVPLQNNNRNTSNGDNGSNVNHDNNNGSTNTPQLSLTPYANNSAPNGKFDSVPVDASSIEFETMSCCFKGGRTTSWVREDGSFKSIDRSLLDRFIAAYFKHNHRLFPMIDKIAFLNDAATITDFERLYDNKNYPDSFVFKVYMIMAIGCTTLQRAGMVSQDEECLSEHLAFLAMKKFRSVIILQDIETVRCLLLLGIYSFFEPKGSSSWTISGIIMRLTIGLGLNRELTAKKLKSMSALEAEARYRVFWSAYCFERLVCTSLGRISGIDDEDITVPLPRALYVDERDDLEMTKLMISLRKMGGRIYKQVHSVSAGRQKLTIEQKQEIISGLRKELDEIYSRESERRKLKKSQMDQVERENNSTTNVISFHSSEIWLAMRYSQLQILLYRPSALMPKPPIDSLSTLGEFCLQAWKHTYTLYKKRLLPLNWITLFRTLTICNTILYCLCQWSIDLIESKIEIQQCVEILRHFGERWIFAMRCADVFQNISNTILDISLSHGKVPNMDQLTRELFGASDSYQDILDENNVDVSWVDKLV
How it was run: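 PURExpress in vitro transcription/translation supplied GST-tagged yeast transcription factors, either full-length or DNA-binding domain. Applied at about 100-200 nM to universal all-10-mer Agilent arrays double-stranded by primer extension, the bound protein was detected with fluorescent anti-GST. E-scores, modified Wilcoxon-Mann-Whitney statistics, were given by the Universal PBM Analysis Suite to ungapped eight-base words pooled with their reverse complements after masliner normalisation.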

Sequence | PBM E-score
AACGTAGC | -0.195
GCTGCTCC | -0.145
CGCTGTAC | 0.0659
ACCCTTCT | -0.247
TCCGCTAA | 0.248
CGCCGTCA | 0.33
ACATGGGC | -0.129
TCTCAAGA | -0.133
AAGAGTAC | -0.12
CCGCGCCC | 0.268
GGCCCGGA | 0.21
AATAGAGC | -0.0257
GTCTTGGA | -0.254
CGTATGGC | -0.145
GCTCCCGA | -0.0118
CGAGGTCA | -0.0286
CAAAATCA | -0.117
ATAGTACA | -0.13
CGGTGTAG | 0.323
ACTTGCGC | 0.105
CCATTCTC | -0.126
TAAATCTA | -0.0639
AGGGAAGG | -0.103
AGCTGCGC | -0.0182
AAGCATCA | -0.187

Sequence | PBM E-score
ACCACTTC | 0.0599
AACGCAAT | -0.0265
ATGAACTA | -0.151
GATGGTGC | -0.0647
AGGTGCTA | 0.0872
CCCAGCCA | -0.265
CCTCGGTA | 0.223
ATGTCTAG | -0.119
ATACGTGA | -0.0516
CGCGTTAG | -0.0182
ACCTATGC | 0.0175
ACGTCTTC | -0.132
CCCGACAG | 0.305
ATTACGAA | 0.0233
ACCCCAGC | -0.0864
ACGCAAAC | -0.206
TATTTTAA | 0.0873
CCCATCAG | -0.157
CGGCATAG | 0.0895
CCCGTTAG | 0.235
AGGCCGGC | 0.265
ATATGAAT | 0.0646
AGCTGCAC | -0.163
GACTCCAC | -0.14
ACTACCCT | -0.276

Sequence | PBM E-score
ACCCTTAA | -0.0774
CTAAGAAA | -0.223
TCGGGCCA | 0.0792
AACTCACA | -0.235
CCAACCAC | -0.12
ACTCTTTG | -0.24
GGGCGGGA | 0.277
AGCGTTTG | -0.253
CGGAGTGC | 0.198
ACAGGGGT | 0.00253
AGCAGCAA | -0.174
CGAGTACA | -0.158
AGGATCGC | -0.0683
GCAGGCAC | -0.114
ACGACCGT | 0.143
CCGTCCAA | 0.269
ACCAACAC | -0.188
GAGTTCCA | -0.0932
AGCGTGCC | -0.0922
CTCAGTAC | -0.213
ACTGGCTA | -0.141
CGTTTCTC | 0.0293
GCTGTCCC | -0.0545
CGCCCCAA | 0.134
AGGAGTAG | -0.135

Sequence | PBM E-score
ACATCGAA | -0.0128
AGATAGGA | 0.00142
AGGACCAA | -0.115
CATAAAAG | -0.00979
CCACCTAC | -0.0935
AACTCCAA | -0.174
CAACAAGA | -0.117
AGAAACAC | -0.0091
CCCGCTAC | 0.216
ACTTACAT | -0.234
GACGTCAC | 0.0593
AAAAGGAT | -0.147
ACCATAAC | -0.0145
CCTCTGTC | -0.0874
CACGTAAA | -0.152
CTGGTTAC | -0.167
ATCTTAAT | -0.135
GGCTCGGA | 0.0311
TCGGCCCA | 0.105
ATTTGGGG | -0.159
CAAGCGAA | -0.355
CAAAGTTA | -0.0549
CCTTAGTC | 0.0459
AGCAACTA | 0.0984
GAGGCGAC | -0.252

Sequence | PBM E-score
GGTAGGGA | -0.00935
AAGGCCGG | 0.407
TCGTTACA | -0.114
GCTTAGAA | -0.107
AATCCATC | -0.179
CTGTAGCA | -0.128
AAAACAAC | -0.173
ATTGCTTC | -0.0848
AAAATAAG | 0.0161
CCTCCATC | -0.18
CAGGTTGA | -0.147
CACATAGG | -0.126
GCGCCTCA | -0.0151
CGAACGCA | 0.0645
AACCGGCA | 0.106
CCATGCAG | -0.247
ATCGCGGC | 0.32
CACTCAAG | -0.364
AGGGCAAC | -0.225
ACATTTCT | 0.00908
CCCTTAAA | -0.237
CCCATATC | 0.0514
ATTTCCAG | -0.0648
GCTTCTAA | -0.191
CGCAACAA | -0.0248

Sequence | PBM E-score
ATCGAAGA | 0.0496
CTCCTCTC | -0.308
GCCCCCAC | 0.0261
CGTAATAA | -0.0188
TACAGCCA | -0.151
TTCCACAA | -0.131
CGTATCGC | 0.205
CGCACTAA | 0.114
ACGAGGAC | 0.0813
CAAGGCAG | -0.201
AGGCGTGA | -0.213
TGGCGTAA | -0.159
CCTCAAGG | -0.277
CGATCCAC | -0.0554
ATGCAGGC | -0.101
AAAGAGGC | -0.0782
AAGGGAAT | -0.00041
ACTGACAC | 0.0105
ATTCCACC | 0.135
GAGCCGAA | 0.0621
CTCTCTCA | -0.0636
CATCTCAC | -0.0371
CACACACC | 0.105
CTCCGGCC | 0.245
AACCGATC | 0.106

Sequence | PBM E-score
GTCACATA | 0.0765
AGCACCAA | -0.159
AAGGATTG | -0.188
ACATCGTG | -0.106
CCATCCGC | 0.136
AAGTTTGT | 0.0493
GCCTTACA | 0.0192
CGGATCAC | 0.0285
AGTAAGCG | 0.0373
AAGTTCTC | -0.0356
TATGCTAA | -0.119
CCACCGTC | 0.246
AGACAGCC | -0.0587
CCCTTTAA | 0.0465
TATACGGA | 0.134
CTGAACGA | -0.151
CACGCCTG | -0.158
AAGTACCG | 0.441
CGCATTGC | -0.0359
ATGCCGTA | 0.162
GCGGCCAA | 0.0811
ATTCCTGG | -0.183
